Source: PMC7819943, “Rice protein-binding microarrays: a tool to detect cis-acting elements near promoter regions in rice”
The other results are listed elsewhere or left out.

Target: T1, OsWOX13 (Oryza sativa, UniProt Q5QMM3 1-267)
T1 sequence: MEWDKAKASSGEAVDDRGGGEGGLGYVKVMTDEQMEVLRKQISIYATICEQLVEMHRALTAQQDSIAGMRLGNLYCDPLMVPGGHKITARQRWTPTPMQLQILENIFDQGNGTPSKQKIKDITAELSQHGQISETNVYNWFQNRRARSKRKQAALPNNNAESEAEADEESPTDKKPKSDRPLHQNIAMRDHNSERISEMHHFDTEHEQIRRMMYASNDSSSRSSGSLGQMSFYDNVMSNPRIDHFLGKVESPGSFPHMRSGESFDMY
Assay: protein-binding microarray (RPBM); PBS, 2% BSA, 51.3 ng/ul salmon testes DNA, 50 uM zinc acetate, 200 nM TF, 25 C, 1 h; high values mean tight binding
Conditions: protein: recombinant; tags: N-terminal polyhistidine and DsRed monomer fusion (pET32a); label: CyDye5-dUTP incorporated in the synthesized complementary strand; 3' TTTTT single-stranded linker to array surface; dsDNA, one strand shown
Summary of the method: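 The binding signal for each feature is its fluorescence intensity in arbitrary units. An Axon 4000B scanner was used to read a custom Agilent array that had been made double-stranded with Cy5-dUTP primer extension, blocked with 2% BSA, incubated at 25 °C for 1 h with 200 nM protein in PBS, 2% BSA, salmon testes DNA and 50 µM zinc acetate, and washed. The protein was an N-terminal polyhistidine–DsRed transcription factor fusion from E. coli BL21-CodonPlus, purified on Ni–NTA.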

**Q.** “CTCGTTGACAGCCCTACTGCCTGCCTATGTGAATTTCCATCGGAGTCACCTAGTGCAG” was tested. Which binding signal did it give?
**A.** 5590 fluorescence intensity (a.u.)

**Q.** “ATCTACACAAATTAGATGAGTTAGCAAGCTTGTCCTCTAACGGAGTCACCTAGTGCAG” was tested. Which binding signal did it give?
**A.** 6430 fluorescence intensity (a.u.)

**Q.** “CCAAGAATAATTGGGTTTTGTTTAGATCAAAGTATAGCGTCGGAGTCACCTAGTGCAG” was tested. Which binding signal did it give?
**A.** 7330 fluorescence intensity (a.u.)

**Q.** “TCACACTTTGATTAGGCCGTGCAGCCCCAACCACAAGTCCCGGAGTCACCTAGTGCAG” was tested. Which binding signal did it give?
**A.** 6680 fluorescence intensity (a.u.)

**Q.** How did the binding signal turn out when “CCTACAAACGTCAATCACAGCCAACAATAACTTCAAACTTCGGAGTCACCTAGTGCAG” was run?
**A.** 16200 fluorescence intensity (a.u.)

**Q.** How did the binding signal turn out when “GATGTAATTATAATTAAAGTTTTAAAATTTATAGTAATTACGGAGTCACCTAGTGCAG” was run?
**A.** 34600 fluorescence intensity (a.u.)

**Q.** How did the binding signal turn out when “ACAATCAATCAATCTTGCTTTCCATTCAAAGTCTTCATTTCGGAGTCACCTAGTGCAG” was run?
**A.** 35000 fluorescence intensity (a.u.)

**Q.** For “TGCCTTACTCTAATTAGAAGTAATTACTTAATCAATTTCTCGGAGTCACCTAGTGCAG”, which binding signal is on record?
**A.** 24500 fluorescence intensity (a.u.)

**Q.** Which binding signal does the source give for “TATTTATAATTGTGGAGATTATGGGTACCAAATACCCACACGGAGTCACCTAGTGCAG” here?
**A.** 13400 fluorescence intensity (a.u.)

**Q.** With “TTTAACAATAAATAATTTGAAAACATGCCAACTTGAAGAACGGAGTCACCTAGTGCAG” as the sequence, how does the binding signal read?
**A.** 11900 fluorescence intensity (a.u.)

**Q.** For “AGGGGTGATCGATCAGCTAATTTCATTTCGCGGGGTGTAACGGAGTCACCTAGTGCAG”, which binding signal is on record?
**A.** 3190 fluorescence intensity (a.u.)

**Q.** How did the binding signal turn out when “AATTATTTGATTAGTTGTACACTTGTACATGCTACTGAAGCGGAGTCACCTAGTGCAG” was run?
**A.** 36800 fluorescence intensity (a.u.)

**Q.** How did the binding signal turn out when “CACTGATTTCTGAGTACTTAAACTCAGGGGCGGATCAACACGGAGTCACCTAGTGCAG” was run?
**A.** 8570 fluorescence intensity (a.u.)

**Q.** For “GTTTAAATTTAAACAAACCTGCAAATTTTAAACTGCTCGTCGGAGTCACCTAGTGCAG”, which binding signal is on record?
**A.** 19000 fluorescence intensity (a.u.)

**Q.** Which binding signal does the source give for “CGAAATTAAGGTTCACGTGAATTTACCCTTTTACCCTTCCCGGAGTCACCTAGTGCAG” here?
**A.** 4650 fluorescence intensity (a.u.)

**Q.** “AATCGGGTTAAATTAGATCTTATTGCGGTATGAATTGATTCGGAGTCACCTAGTGCAG” was tested. Which binding signal did it give?
**A.** 4110 fluorescence intensity (a.u.)

**Q.** How did the binding signal turn out when “CATAAACAGTGAAAACTAATCATCATATTATCACTGCATCCGGAGTCACCTAGTGCAG” was run?
**A.** 11500 fluorescence intensity (a.u.)

**Q.** With “GTGTAAATTGCGAGACAAATCTTTTAAGTGTAATTGCTCCCGGAGTCACCTAGTGCAG” as the sequence, how does the binding signal read?
**A.** 19700 fluorescence intensity (a.u.)

**Q.** Which binding signal does the source give for “ACTTCAATGTTAATTTAGTAAATTTATTTTAACATGACAACGGAGTCACCTAGTGCAG” here?
**A.** 13800 fluorescence intensity (a.u.)

**Q.** How did the binding signal turn out when “GAGAGATGGTGATGATAGACATGTGGGTCCCACGCTGACTCGGAGTCACCTAGTGCAG” was run?
**A.** 5020 fluorescence intensity (a.u.)

**Q.** For “GCCATTGATGACAAAGACAACCTGGAAGATTACTGTTGCACGGAGTCACCTAGTGCAG”, which binding signal is on record?
**A.** 6620 fluorescence intensity (a.u.)

**Q.** How did the binding signal turn out when “AACCTCAACCAATCACTAGTAACCTCAACATTTCGCACTACGGAGTCACCTAGTGCAG” was run?
**A.** 4790 fluorescence intensity (a.u.)

**Q.** With “TCAGTTACTAATTAGTACTATCAACAGAATCCACTGTACACGGAGTCACCTAGTGCAG” as the sequence, how does the binding signal read?
**A.** 22700 fluorescence intensity (a.u.)

**Q.** “CATTAGAGTGATTACTTTTGTTGGGGTACACAAATCATTGCGGAGTCACCTAGTGCAG” was tested. Which binding signal did it give?
**A.** 12600 fluorescence intensity (a.u.)

**Q.** For “GTCAATCATTGTTCTATGAGCTAGATGATAAAGATGACAACGGAGTCACCTAGTGCAG”, which binding signal is on record?
**A.** 8180 fluorescence intensity (a.u.)

**Q.** “AACAATTAATGATTTTATTTCTGAATTTGCACGGAAGATACGGAGTCACCTAGTGCAG” was tested. Which binding signal did it give?
**A.** 12600 fluorescence intensity (a.u.)

**Q.** Which binding signal does the source give for “CCGATTGAATGGGGATTTGTGTGGAAATGGCATAGGGAAGCGGAGTCACCTAGTGCAG” here?
**A.** 29000 fluorescence intensity (a.u.)

**Q.** Which binding signal does the source give for “CAACAATTAATTATAGTTTCGATTGAATTTCACACACATCCGGAGTCACCTAGTGCAG” here?
**A.** 5930 fluorescence intensity (a.u.)

**Q.** With “CTGAAATTTATGTTGCTGATGATCCTTTCAATGGGAGCTTCGGAGTCACCTAGTGCAG” as the sequence, how does the binding signal read?
**A.** 13000 fluorescence intensity (a.u.)

**Q.** With “TTACCCACTAATTAGGTCCGTCACTAAATATGAAAAGCACCGGAGTCACCTAGTGCAG” as the sequence, how does the binding signal read?
**A.** 17300 fluorescence intensity (a.u.)

**Q.** “ATGGCAAATTATTGCGATAAAATTGTTTTCTGCCGATCGACGGAGTCACCTAGTGCAG” was tested. Which binding signal did it give?
**A.** 8880 fluorescence intensity (a.u.)

**Q.** With “AGACATGATAGGTTTATCCAATCCATCACCTCATCCCTCACGGAGTCACCTAGTGCAG” as the sequence, how does the binding signal read?
**A.** 5250 fluorescence intensity (a.u.)

**Q.** For “GGATTTAGTAGGGATGATTGATGGATGACCCAAGGAAAGACGGAGTCACCTAGTGCAG”, which binding signal is on record?
**A.** 18500 fluorescence intensity (a.u.)

**Q.** Which binding signal does the source give for “TTGTTTATTTAAGGTGTGATTGTATTTGGATCATGTTTTGCGGAGTCACCTAGTGCAG” here?
**A.** 5500 fluorescence intensity (a.u.)

**Q.** “CGATAATTTGAATTTGAATTTCAAATTATGACAACTTTAACGGAGTCACCTAGTGCAG” was tested. Which binding signal did it give?
**A.** 38600 fluorescence intensity (a.u.)

**Q.** Which binding signal does the source give for “AATAATTTGCCAATACCAACATTTTACTATAAATACTTATCGGAGTCACCTAGTGCAG” here?
**A.** 5410 fluorescence intensity (a.u.)

**Q.** How did the binding signal turn out when “CTAATTAATTAATTACATAAGCTAAGCGCCGGGAGTTTGCCGGAGTCACCTAGTGCAG” was run?
**A.** 48200 fluorescence intensity (a.u.)

**Q.** Which binding signal does the source give for “ATCAATCACATTTGATCACCAACACTCAACTACTACAAATCGGAGTCACCTAGTGCAG” here?
**A.** 9200 fluorescence intensity (a.u.)

**Q.** How did the binding signal turn out when “GATTAATTAGTCCGCATATTTGCATGCCCATTTTGGTAGTCGGAGTCACCTAGTGCAG” was run?
**A.** 43800 fluorescence intensity (a.u.)

**Q.** “CGCTAAATTACCTACTTTCACAATTTTGAAGTATGTTATACGGAGTCACCTAGTGCAG” was tested. Which binding signal did it give?
**A.** 9250 fluorescence intensity (a.u.)

**Q.** With “TCAAAATTAACTTGTATAAGACTTAAATTTTGATATCCATCGGAGTCACCTAGTGCAG” as the sequence, how does the binding signal read?
**A.** 11100 fluorescence intensity (a.u.)

**Q.** For “GTGGATTGCATGATGAATCCTTTTGCACAATTGTTTGGCCCGGAGTCACCTAGTGCAG”, which binding signal is on record?
**A.** 3800 fluorescence intensity (a.u.)

**Q.** How did the binding signal turn out when “CAACCTTAATTTCAATTTAAAACTACACCATACTTTCACCCGGAGTCACCTAGTGCAG” was run?
**A.** 21900 fluorescence intensity (a.u.)

**Q.** With “ACTCTATTATTGAACGTGTATTACTGACACTGAAAGTTTCCGGAGTCACCTAGTGCAG” as the sequence, how does the binding signal read?
**A.** 4850 fluorescence intensity (a.u.)

**Q.** “TTCCCTGATTTTCCCTCATCATCCCATCTCGTTTGTTCTTCGGAGTCACCTAGTGCAG” was tested. Which binding signal did it give?
**A.** 10200 fluorescence intensity (a.u.)

**Q.** For “GTGCATCACCAATCAAAACAGGAGGTGTTTGGAACTCCGTCGGAGTCACCTAGTGCAG”, which binding signal is on record?
**A.** 3870 fluorescence intensity (a.u.)

**Q.** With “CTCTTTTGATGAAAATTGAGGAAATCTGACTTAAAAGGCACGGAGTCACCTAGTGCAG” as the sequence, how does the binding signal read?
**A.** 4400 fluorescence intensity (a.u.)

**Q.** “ATTTGAAATTTAAATTTTAGCTTTTGCTTTAGTTTATTTGCGGAGTCACCTAGTGCAG” was tested. Which binding signal did it give?
**A.** 8720 fluorescence intensity (a.u.)

**Q.** With “TTAATTTAATTCAGGTGTGGAGTCCCCACCGGTGTTCCCTCGGAGTCACCTAGTGCAG” as the sequence, how does the binding signal read?
**A.** 7880 fluorescence intensity (a.u.)

**Q.** For “GAAAGGATCTGTACTAGTGATTGGAAAATCCGTCATAGGGCGGAGTCACCTAGTGCAG”, which binding signal is on record?
**A.** 6480 fluorescence intensity (a.u.)

**Q.** For “TCTAAACATATCCAGATAAATTATTCTGAGATGAGTCTCACGGAGTCACCTAGTGCAG”, which binding signal is on record?
**A.** 3670 fluorescence intensity (a.u.)

**Q.** With “GGTTGATAACCATGATAATTGAGCTGTTGCCGTCGCATTTCGGAGTCACCTAGTGCAG” as the sequence, how does the binding signal read?
**A.** 14600 fluorescence intensity (a.u.)

**Q.** For “AGTGATGTATATTGATCTTTGAATAAGCTGGTAGACGAATCGGAGTCACCTAGTGCAG”, which binding signal is on record?
**A.** 4060 fluorescence intensity (a.u.)

**Q.** “CCCTATCAGATTTGACAGAAAATTTACTTATAATTTCAGTCGGAGTCACCTAGTGCAG” was tested. Which binding signal did it give?
**A.** 14700 fluorescence intensity (a.u.)
